Measured values as given in US8633183B2 (priority 2010, dated 2014).

What was measured:
[1] = tested on: U87MG human glioblastoma cell line; assay: cells; conditions: U-87 MG, read-out: EC50 U87MG
BT474 = assay: cells; conditions: Homo sapiens, BT-474, read-out: EC50 BT474

Compound	EC50 [1] [nM]	EC50 (BT474) [nM]
CCc1ncnc(-c2ccc(C(=O)N3CCN(c4ccccn4)CC3)c(C)c2)c1C#Cc1ccc(N)nc1 [Example E-130]	33.3	
CCc1ncnc(-c2ccc(C(=O)N(C)CCN3CCCC3=O)c(Cl)c2)c1C#Cc1ccc(N)nc1 [Example E-85]	280	
CCc1ncnc(-c2cc(F)c(C(=O)N3CCN(C4CCOCC4)CC3)c(F)c2)c1C#Cc1ccc(N)nc1 [Example E-6]	24.9	
CCc1ncnc(-c2ccc(C(=O)N3CC(O)CO3)c(Cl)c2)c1C#Cc1ccc(N)nc1 (stereo not drawn) [Example E-73]	243	
CCNc1ccc(C#Cc2c(CC)ncnc2-c2ccc(C(=O)N3CCC4(CC3)COC4)c(F)c2)cn1 [Example E-263]		22.9
CCc1ncnc(-c2cc(F)c(C(=O)N3CCN(CC)CC3)c(F)c2)c1C#Cc1ccc(NC)nc1 [Example E-211]		96.7
CCc1ncnc(-c2cc(F)c(C(=O)N3CCN4CCC[C@H]4C3)c(Cl)c2)c1C#Cc1ccc(N)nc1 [Example E-238]		19.1
CCc1ncnc(-c2cc(F)c(C(=O)N3CCN4CCC[C@H]4C3)c(F)c2)c1C#Cc1ccc(NC)nc1 [Example E-207]		58.7
CCc1ncnc(-c2ccc(C(=O)N3CCN(C)CC3)c(Cl)c2)c1C#Cc1ccc(NC)nc1 [Example E-191]		45
CCc1ncnc(-c2ccc(C(=O)N3CCN(C4COC4)CC3)c(F)c2)c1C#Cc1ccc(N)nc1 [Example E-271]		10.3
CCc1ncnc(-c2cc(F)c(C(=O)N3CCN(C)C(=O)C3)c(F)c2)c1C#Cc1ccc(NC)nc1 [Example E-208]		40.4
CCc1ncnc(-c2ccc(C(=O)N3CCN4CCCC[C@H]4C3)c(F)c2)c1C#Cc1ccc(N)nc1 [Example E-144]		17.6
CCc1ncnc(-c2ccc(C(=O)N3CCN(C(C)CO)CC3)c(F)c2)c1C#Cc1ccc(N)nc1 (stereo not drawn) [Example E-292]		20.3
CCc1ncnc(-c2ccc(C(=O)N3CC4(CNC4)C3)c(Cl)c2)c1C#Cc1ccc(N)nc1 [Example E-270]		213
CCNc1ccc(C#Cc2c(CC)ncnc2-c2ccc(C(=O)N3CCC4(CC3)CN(C(=O)OC(C)(C)C)C4)c(F)c2)cn1 [Example E-266]		273
CCc1ncnc(-c2ccc(C(=O)N3CCN(C(C)COC)CC3)c(F)c2)c1C#Cc1ccc(N)nc1 (stereo not drawn) [Example E-291]		18.2
CCNc1ccc(C#Cc2c(CC)ncnc2-c2ccc(C(=O)N3CCN(C4CCC4)CC3)c(F)c2)cn1 [Example E-265]		24.3
CCc1ncnc(-c2ccc(C(=O)N3CCC(N4CCN(C)CC4)CC3)c(F)c2)c1C#Cc1ccc(NC)nc1 [Example E-183]		104
CCNc1ccc(C#Cc2c(CC)ncnc2-c2ccc(C(=O)N3CCC(N4CCOCC4)CC3)c(F)c2)cn1 [Example E-259]		13.9
CCc1ncnc(-c2cc(Cl)c(C(=O)N3CCN(C)CC3)c(Cl)c2)c1C#Cc1ccc(N)nc1 [Example E-197]		16.4
CCc1ncnc(-c2cc(Cl)c(C(=O)N3CC[C@@H](N(C)C)C3)c(Cl)c2)c1C#Cc1ccc(N)nc1 [Example E-196]		45.6
CCc1ncnc(-c2ccc(C(=O)N3CCN(CCNS(C)(=O)=O)CC3)c(F)c2)c1C#Cc1ccc(N)nc1 [Example E-246]		61.4
CCc1ncnc(-c2cc(F)c(C(=O)N3CCN(C4CCC4)CC3)c(Cl)c2)c1C#Cc1ccc(N)nc1 [Example E-160]		114

Compound	EC50 [1] [nM]	EC50 (BT474) [nM]
CCc1ncnc(-c2cc(Cl)c(C(=O)N3CCC(C)(O)CC3)c(Cl)c2)c1C#Cc1ccc(N)nc1 [Example E-203]		14.9
CCc1ncnc(-c2ccc(C(=O)N3CCN(C4CCOCC4)CC3)c(F)c2)c1C#Cc1ccc(NC)nc1 [Example E-179]		28.7
CCc1ncnc(-c2cc(Cl)c(C(=O)N3CCN(CCC#N)CC3)c(Cl)c2)c1C#Cc1ccc(N)nc1 [Example E-206]		12.1
CCc1ncnc(-c2cc(F)c(C(=O)N3CCN(CC)CC3)c(Cl)c2)c1C#Cc1ccc(N)nc1 [Example E-235]		19.2
CCc1ncnc(-c2cc(F)c(C(=O)N3CCN(C=O)CC3)c(F)c2)c1C#Cc1ccc(NC)nc1 [Example E-219]		37.3
CCc1ncnc(-c2cc(F)c(C(=O)N3CCN(CCN)CC3)c(Cl)c2)c1C#Cc1ccc(N)nc1 [Example E-286]		29.4
CCc1ncnc(-c2ccc(C(=O)N3CCC(C(C)(C)O)CC3)c(Cl)c2)c1C#Cc1ccc(NC)nc1 [Example E-184]		39.8
CCc1ncnc(-c2cc(Cl)c(C(=O)N3CCN4CCC[C@H]4C3)c(Cl)c2)c1C#Cc1ccc(N)nc1 [Example E-194]		25.1
CCc1ncnc(-c2ccc(C(=O)N3CCC(N4CCN(C)CC4)CC3)c(Cl)c2)c1C#Cc1ccc(NC)nc1 [Example E-192]		52.7
CCc1ncnc(-c2cc(F)c(C(=O)N3CCC(C(C)O)CC3)c(Cl)c2)c1C#Cc1ccc(N)nc1 (stereo not drawn) [Example E-241]		16.6
CCc1ncnc(-c2cc(Cl)c(C(=O)N3CCC(C(C)(C)O)CC3)c(Cl)c2)c1C#Cc1ccc(N)nc1 [Example E-201]		9.77
CCc1ncnc(-c2ccc(C(=O)N3CC[C@@H](N(C)C)C3)c(Cl)c2)c1C#Cc1ccc(NC)nc1 [Example E-188]		77.5
CCc1ncnc(-c2ccc(C(=O)N3CCn4ccnc4C3)c(Cl)c2)c1C#Cc1ccc(N)nc1 [Example E-256]		27.9
CCc1ncnc(-c2cc(Cl)c(C(=O)N3CCN(CC(F)F)CC3)c(Cl)c2)c1C#Cc1ccc(N)nc1 [Example E-202]		14.2
CCNc1ccc(C#Cc2c(CC)ncnc2-c2ccc(C(=O)N3CCn4c(C)cnc4C3)c(F)c2)cn1 [Example E-262]		18.8
CCc1ncnc(-c2cc(F)c(C(=O)N3CCN(CCC#N)CC3)c(Cl)c2)c1C#Cc1ccc(N)nc1 [Example E-243]		29.8
CCc1ncnc(-c2cc(F)c(C(=O)N3CCC4(CC3)CNC4)c(F)c2)c1C#Cc1ccc(N)nc1 [Example E-161]		237
CCc1ncnc(-c2ccc(C(=O)N3CCN(CCCS(C)(=O)=O)CC3)c(F)c2)c1C#Cc1ccc(N)nc1 [Example E-250]		37.9
CCc1ncnc(-c2cc(F)c(C(=O)N3CCn4cnnc4C3)c(F)c2)c1C#Cc1ccc(N)nc1 [Example E-148]		33.5
CCc1ncnc(-c2cc(F)c(C(=O)N3CCN(C)C(=O)C3)c(Cl)c2)c1C#Cc1ccc(N)nc1 [Example E-239]		15.2
CCc1ncnc(-c2cc(F)c(C(=O)N3CCN(CCCS(C)(=O)=O)CC3)c(F)c2)c1C#Cc1ccc(N)nc1 [Example E-146]		11.9
CCc1ncnc(-c2cc(F)c(C(=O)N3CCC(CN)CC3)c(Cl)c2)c1C#Cc1ccc(N)nc1 [Example E-285]		12.4
CCc1ncnc(-c2ccc(C(=O)N3CCN(CC(F)F)CC3)c(Cl)c2)c1C#Cc1ccc(NC)nc1 [Example E-187]		29.8

Compound	EC50 [1] [nM]	EC50 (BT474) [nM]
CCc1ncnc(-c2ccc(C(=O)N3CCN(CCNS(C)(=O)=O)CC3)c(Cl)c2)c1C#Cc1ccc(N)nc1 [Example E-253]		64.6
CCc1ncnc(-c2cc(F)c(C(=O)N3CCC4(CC3)COC4)c(F)c2)c1C#Cc1ccc(N)nc1 [Example E-150]		20.2
CCc1ncnc(-c2cc(F)c(C(=O)N3CCn4ccnc4C3)c(Cl)c2)c1C#Cc1ccc(N)nc1 [Example E-155]		23.7
CCc1ncnc(-c2cc(F)c(C(=O)N3CCN(CC(C)(C)O)CC3)c(F)c2)c1C#Cc1ccc(NC)nc1 [Example E-212]		72.4
CCc1ncnc(-c2ccc(C(=O)N3CCN(CCCS(C)(=O)=O)CC3)c(Cl)c2)c1C#Cc1ccc(N)nc1 [Example E-257]		44
CCc1ncnc(-c2cc(F)c(C(=O)N3CCN(CCNS(C)(=O)=O)CC3)c(Cl)c2)c1C#Cc1ccc(N)nc1 [Example E-159]		19.7
CCc1ncnc(-c2ccc(C(=O)N3CC[C@H](N(C)C)C3)c(Cl)c2)c1C#Cc1ccc(NC)nc1 [Example E-190]		82.4
CCc1ncnc(-c2ccc(C(=O)N3CCC(C(C)(C)O)CC3)c(F)c2)c1C#Cc1ccc(NC)nc1 [Example E-177]		57
CCc1ncnc(-c2cc(F)c(C(=O)N3CCN(CC(C)(C)O)CC3)c(Cl)c2)c1C#Cc1ccc(N)nc1 [Example E-240]		16.8
CCc1ncnc(-c2ccc(C(=O)N3CCN4CCC[C@H]4C3)c(OC(F)(F)F)c2)c1C#Cc1ccc(N)nc1 [Example E-223]		66.4
CCc1ncnc(-c2ccc(C(=O)N3CCN(C)CC3)c(C(F)(F)F)c2)c1C#Cc1ccc(N)nc1 [Example E-229]		48.6
CCc1ncnc(-c2ccc(C(=O)N3CC[C@@H](N(C)C)C3)c(F)c2)c1C#Cc1ccc(NC)nc1 [Example E-180]		67
CCc1ncnc(-c2cc(Cl)c(C(=O)N3CCN(CC)CC3)c(Cl)c2)c1C#Cc1ccc(N)nc1 [Example E-198]		9.84
CCc1ncnc(-c2cc(F)c(C(=O)NCC3CCNCC3)c(F)c2)c1C#Cc1ccc(N)nc1 [Example E-175]		576
CCc1ncnc(-c2cc(Cl)c(C(=O)N3CCN(CC(C)(C)O)CC3)c(Cl)c2)c1C#Cc1ccc(N)nc1 [Example E-199]		9.81
CCc1ncnc(-c2ccc(C(=O)N3CCN(C4CCC4)CC3)c(Cl)c2)c1C#Cc1ccc(N)nc1 [Example E-252]		15.2
CCc1ncnc(-c2ccc(C(=O)N3CCC(CN(C)C)CC3)c(F)c2)c1C#Cc1ccc(N)nc1 [Example E-272]		107
CCc1ncnc(-c2cc(F)c(C(=O)N3CCN(C(C)C)CC3)c(Cl)c2)c1C#Cc1ccc(N)nc1 [Example E-234]		21.7
CCc1ncnc(-c2ccc(C(=O)N3CCN(C4COC4)CC3)c(Cl)c2)c1C#Cc1ccc(N)nc1 [Example E-273]		14.1
CCc1ncnc(-c2cc(F)c(C(=O)N3CCC(C)(O)CC3)c(F)c2)c1C#Cc1ccc(NC)nc1 [Example E-218]		57.4
CCc1ncnc(-c2cc(F)c(C(=O)N3CCC(C(C)(C)O)CC3)c(F)c2)c1C#Cc1ccc(NC)nc1 [Example E-214]		84.1
CCNc1ccc(C#Cc2c(CC)ncnc2-c2ccc(C(=O)N3CC4(CN(C(=O)OC(C)(C)C)C4)C3)c(F)c2)cn1 [Example E-267]		169
CCc1ncnc(-c2cc(F)c(C(=O)N3CCn4c(C)cnc4C3)c(Cl)c2)c1C#Cc1ccc(N)nc1 [Example E-157]		18.3
